Substitutions are numbered along the chain they refer to; changes in the protein carry UniProt numbers. The list shows a part of the results.
T1: RBFOX1 RRM RbFoxmut (Fox-RRM*) (Homo sapiens, UniProt Q9NWB1 109-208, R118D;E147R;N151S;E152T)
T1 sequence: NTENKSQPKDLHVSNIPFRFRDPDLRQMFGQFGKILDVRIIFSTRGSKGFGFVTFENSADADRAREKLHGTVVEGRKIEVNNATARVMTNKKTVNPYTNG

B1: AGUACUG (DNA:RNA)
RNA: GGGAGACCGGAAUUCAGAUUGUCCAGUACUGUUAAAUCCCGUCGUAGCCACCA
DNA 1: CAATCTGAATTCCGGTCTCCC
DNA 2: TGGTGGCTACGACGGGATT
B2: GGUCGCU (DNA:RNA)
RNA: B1 RNA with A25G, A28C, C29G, U30C, G31U
DNA 1: CAATCTGAATTCCGGTCTCCC
DNA 2: TGGTGGCTACGACGGGATT
B3: AAACAGG (DNA:RNA)
RNA: B1 RNA with G26A, U27A, A28C, C29A, U30G
DNA 1: CAATCTGAATTCCGGTCTCCC
DNA 2: TGGTGGCTACGACGGGATT
B4: AAUGACG (DNA:RNA)
RNA: B1 RNA with G26A, A28G, C29A, U30C
DNA 1: CAATCTGAATTCCGGTCTCCC
DNA 2: TGGTGGCTACGACGGGATT
B5: CUGAUCC (DNA:RNA)
RNA: B1 RNA with A25C, G26U, U27G, C29U, U30C, G31C
DNA 1: CAATCTGAATTCCGGTCTCCC
DNA 2: TGGTGGCTACGACGGGATT
B6: ACACCAC (DNA:RNA)
RNA: B1 RNA with G26C, U27A, A28C, U30A, G31C
DNA 1: CAATCTGAATTCCGGTCTCCC
DNA 2: TGGTGGCTACGACGGGATT
B7: UGCAGGC (DNA:RNA)
RNA: B1 RNA with A25U, U27C, C29G, U30G, G31C
DNA 1: CAATCTGAATTCCGGTCTCCC
DNA 2: TGGTGGCTACGACGGGATT
B8: GUACGGG (DNA:RNA)
RNA: B1 RNA with A25G, G26U, U27A, A28C, C29G, U30G
DNA 1: CAATCTGAATTCCGGTCTCCC
DNA 2: TGGTGGCTACGACGGGATT
B9: GGACCAA (DNA:RNA)
RNA: B1 RNA with A25G, U27A, A28C, U30A, G31A
DNA 1: CAATCTGAATTCCGGTCTCCC
DNA 2: TGGTGGCTACGACGGGATT
B10: CACGUGG (DNA:RNA)
RNA: B1 RNA with A25C, G26A, U27C, A28G, C29U, U30G
DNA 1: CAATCTGAATTCCGGTCTCCC
DNA 2: TGGTGGCTACGACGGGATT
B11: GACGUGA (DNA:RNA)
RNA: GGGAGACCGGAAUUCAGAUUGUCCGACGUGAUUAAAUCCCGUCGUAGCCACCA
DNA 1: CAATCTGAATTCCGGTCTCCC
DNA 2: TGGTGGCTACGACGGGATT
B12: CAUAAGG (DNA:RNA)
RNA: B1 RNA with A25C, G26A, C29A, U30G
DNA 1: CAATCTGAATTCCGGTCTCCC
DNA 2: TGGTGGCTACGACGGGATT
B13: GGCCAUG (DNA:RNA)
RNA: B1 RNA with A25G, U27C, A28C, C29A
DNA 1: CAATCTGAATTCCGGTCTCCC
DNA 2: TGGTGGCTACGACGGGATT
B14: CAUGAGA (DNA:RNA)
RNA: B11 RNA with G25C, C27U, U29A
DNA 1: CAATCTGAATTCCGGTCTCCC
DNA 2: TGGTGGCTACGACGGGATT
B15: GGUUGAA (DNA:RNA)
RNA: B1 RNA with A25G, A28U, C29G, U30A, G31A
DNA 1: CAATCTGAATTCCGGTCTCCC
DNA 2: TGGTGGCTACGACGGGATT
B16: UGCUCCC (DNA:RNA)
RNA: B1 RNA with A25U, U27C, A28U, U30C, G31C
DNA 1: CAATCTGAATTCCGGTCTCCC
DNA 2: TGGTGGCTACGACGGGATT
B17: ACGGUCG (DNA:RNA)
RNA: B1 RNA with G26C, U27G, A28G, C29U, U30C
DNA 1: CAATCTGAATTCCGGTCTCCC
DNA 2: TGGTGGCTACGACGGGATT
B18: CUUCGUA (DNA:RNA)
RNA: B1 RNA with A25C, G26U, A28C, C29G, G31A
DNA 1: CAATCTGAATTCCGGTCTCCC
DNA 2: TGGTGGCTACGACGGGATT
B19: CUACGGA (DNA:RNA)
RNA: B11 RNA with G25C, A26U, C27A, G28C, U29G
DNA 1: CAATCTGAATTCCGGTCTCCC
DNA 2: TGGTGGCTACGACGGGATT
B20: GCCCAUC (DNA:RNA)
RNA: B11 RNA with A26C, G28C, U29A, G30U, A31C
DNA 1: CAATCTGAATTCCGGTCTCCC
DNA 2: TGGTGGCTACGACGGGATT
B21: CUUAGAG (DNA:RNA)
RNA: B1 RNA with A25C, G26U, C29G, U30A
DNA 1: CAATCTGAATTCCGGTCTCCC
DNA 2: TGGTGGCTACGACGGGATT
B22: CCCUUUA (DNA:RNA)
RNA: B11 RNA with G25C, A26C, G28U, G30U
DNA 1: CAATCTGAATTCCGGTCTCCC
DNA 2: TGGTGGCTACGACGGGATT
B23: CGAGUAA (DNA:RNA)
RNA: B11 RNA with G25C, A26G, C27A, G30A
DNA 1: CAATCTGAATTCCGGTCTCCC
DNA 2: TGGTGGCTACGACGGGATT
B24: UACGGCC (DNA:RNA)
RNA: B11 RNA with G25U, U29G, G30C, A31C
DNA 1: CAATCTGAATTCCGGTCTCCC
DNA 2: TGGTGGCTACGACGGGATT
B25: UGGUAUC (DNA:RNA)
RNA: B1 RNA with A25U, U27G, A28U, C29A, G31C
DNA 1: CAATCTGAATTCCGGTCTCCC
DNA 2: TGGTGGCTACGACGGGATT
B26: GUCCCGA (DNA:RNA)
RNA: B11 RNA with A26U, G28C, U29C
DNA 1: CAATCTGAATTCCGGTCTCCC
DNA 2: TGGTGGCTACGACGGGATT
B27: UCCAGCG (DNA:RNA)
RNA: B1 RNA with A25U, G26C, U27C, C29G, U30C
DNA 1: CAATCTGAATTCCGGTCTCCC
DNA 2: TGGTGGCTACGACGGGATT
B28: CGCCUAU (DNA:RNA)
RNA: B11 RNA with G25C, A26G, G28C, G30A, A31U
DNA 1: CAATCTGAATTCCGGTCTCCC
DNA 2: TGGTGGCTACGACGGGATT
B29: UUGAUGC (DNA:RNA)
RNA: B11 RNA with G25U, A26U, C27G, G28A, A31C
DNA 1: CAATCTGAATTCCGGTCTCCC
DNA 2: TGGTGGCTACGACGGGATT
B30: UGUACAU (DNA:RNA)
RNA: B1 RNA with A25U, U30A, G31U
DNA 1: CAATCTGAATTCCGGTCTCCC
DNA 2: TGGTGGCTACGACGGGATT
B31: UUGCCUA (DNA:RNA)
RNA: B1 RNA with A25U, G26U, U27G, A28C, G31A
DNA 1: CAATCTGAATTCCGGTCTCCC
DNA 2: TGGTGGCTACGACGGGATT

target: T1, RBFOX1 RRM RbFoxmut (Fox-RRM*); experiment: EMSA; HiTS-Eq, 1 nM pool, 10 min; buffer printed only for the single-RNA assays: 10 mM Tris pH 7.5, 150 mM NaCl, 3.4 mM EDTA, 0.001% NP-40, 30 C; details: tags: His6 N-terminal (pET28a); label: 5' 32P
Summary of the method: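 Purified RbFox RRM (wild type or mutant) was equilibrated for 10 min in 50 µL with 1 nM of a 5′-radiolabelled pool of RNA with 7 randomized nucleotides, its flanks annealed to DNA oligonucleotides, across increasing protein concentrations. Free RNA was separated by 8% native PAGE, excised, reverse-transcribed, PCR-barcoded and sequenced on an Illumina HiSeq 2500. Relative association constants came from read-count changes of each variant against the control reaction, normalised to the cognate motif.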

Binder	binding signal
B1	0.0956 KA relative to UGCAUGU
B2	0.0798 KA relative to UGCAUGU
B3	0.0875 KA relative to UGCAUGU
B4	0.0918 KA relative to UGCAUGU
B5	0.0634 KA relative to UGCAUGU
B6	0.0724 KA relative to UGCAUGU
B7	0.122 KA relative to UGCAUGU
B8	0.0892 KA relative to UGCAUGU
B9	0.0723 KA relative to UGCAUGU
B10	0.0601 KA relative to UGCAUGU
B11	0.0969 KA relative to UGCAUGU
B12	0.0721 KA relative to UGCAUGU
B13	0.244 KA relative to UGCAUGU
B14	0.0807 KA relative to UGCAUGU
B15	0.129 KA relative to UGCAUGU
B16	0.0475 KA relative to UGCAUGU

Binder	binding signal
B17	0.123 KA relative to UGCAUGU
B18	0.142 KA relative to UGCAUGU
B19	0.0651 KA relative to UGCAUGU
B20	0.0616 KA relative to UGCAUGU
B21	0.115 KA relative to UGCAUGU
B22	0.0917 KA relative to UGCAUGU
B23	0.12 KA relative to UGCAUGU
B24	0.185 KA relative to UGCAUGU
B25	0.356 KA relative to UGCAUGU
B26	0.0763 KA relative to UGCAUGU
B27	0.138 KA relative to UGCAUGU
B28	0.123 KA relative to UGCAUGU
B29	0.112 KA relative to UGCAUGU
B30	0.0793 KA relative to UGCAUGU
B31	0.121 KA relative to UGCAUGU

Source: PMC9911399, “Two distinct binding modes provide the RNA-binding protein RbFox with extraordinary sequence specificity”
